In PubChem BioAssay AID624417 (National Center for Advancing Translational Sciences (NCATS), 2012):
Screen size: about 410,000 compounds; about 6,400 (1.6%) were called active. The inconclusive results got no clear call from the source; some entries with a clear call stand among them for comparison. Calls follow the shape of the dose curve; as a rule, active = well fitted inhibition curve with a large enough effect; inconclusive = small, poorly fitted or top-dose-only effect; inactive = no such curve, though single readings can be large or run the other way. A potency beside an inconclusive call is a rough fit, not a confirmed value.

molecular target: Glucagon-like peptide 1 receptor (Homo sapiens) (UniProt P43220); assay: qHTS of GLP-1 Receptor Inverse Agonists (Inhibition Mode); settings: HEK293 GLP-1R CRE-luciferase, luminescence, 24 h, GLP-1R form is constitutively active; series mostly up to 38.3 µM; also: nearly all actives have a fitted effect of over 55% in size
Outline: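 Luminescence readout: a drop in cAMP-driven luciferase signal flags inverse agonism at a constitutively active GLP-1R stably expressed in HEK293. Compound exposure lasted 24 hr at 37 deg C, 5% CO2.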
Potency is read from the fitted curve at half-maximal effect; tags tell the direction and shape of the fitted curve.

Chain of UniProt P43220 (P43220 whole entry, looked up): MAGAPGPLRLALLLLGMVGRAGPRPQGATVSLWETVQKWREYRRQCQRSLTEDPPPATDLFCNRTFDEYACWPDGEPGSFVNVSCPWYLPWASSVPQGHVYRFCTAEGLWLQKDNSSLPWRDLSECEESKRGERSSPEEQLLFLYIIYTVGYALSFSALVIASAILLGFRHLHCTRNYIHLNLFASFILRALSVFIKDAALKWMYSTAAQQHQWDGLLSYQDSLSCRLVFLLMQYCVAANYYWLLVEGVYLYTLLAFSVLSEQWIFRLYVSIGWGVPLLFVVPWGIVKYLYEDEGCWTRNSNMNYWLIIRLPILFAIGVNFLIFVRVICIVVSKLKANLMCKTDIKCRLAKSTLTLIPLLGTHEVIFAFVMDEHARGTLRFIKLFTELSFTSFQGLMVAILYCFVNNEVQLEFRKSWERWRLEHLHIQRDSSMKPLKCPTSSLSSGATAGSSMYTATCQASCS

Potency, active:
Cc1cc2nc(C)n(CCCNC(=O)Nc3ccc(F)cc3)c2cc1C 10 µM, CCCC[C@@H]1CNC(=S)N1CCc1cccc2ccccc12 3.55 µM, Cc1cccc(NC(=O)c2cccc(Cn3cc(Br)c([N+](=O)[O-])n3)c2)c1C 10 µM

Potency, inconclusive:
N=c1sccn1CC(=O)NCc1ccc(Cl)cc1Cl 11.2 µM [inhibitor, partial curve, poor fit], CCCCC1=CC2=C(c3ccco3)C(=O)C(C)(OC(=O)c3ccc(OC)cc3)C(=O)C2=CN1c1ccc(OC)cc1 (stereo not drawn) 22.4 µM [inhibitor, partial curve, poor fit], CCc1ccc(-c2cc(C)no2)cc1S(=O)(=O)NCCc1ccccc1 11.2 µM [inhibitor, partial curve, poor fit], CN1CCN(c2ccc(-c3cccc(NC(=O)COc4ccc(Cl)cc4Cl)c3)nn2)CC1 12.6 µM [inhibitor, partial curve, poor fit], CCn1cc(CN2CCN(CCC(C)C)C(CCO)C2)c2ccccc21 (stereo not drawn) 20 µM [inhibitor, single point], CCCc1ncc(CN2CCC(C(=O)Nc3cccc(-c4cscn4)c3)CC2)cn1 2.51 µM [inhibitor, partial curve], CCOC(=O)c1c(NC(=O)c2ccc(S(=O)(=O)N(C)C)cc2)sc2c1CCN(C)C2 28.2 µM [inhibitor, single point], COc1cccc(OCCn2cc(C(=O)c3ccco3)c3ccccc32)c1 28.2 µM [inhibitor, single point], CCOC(=O)C1(Cc2ccccc2C(F)(F)F)CCN(C2CCN(C(C)=O)CC2)CC1 8.91 µM [inhibitor, partial curve, poor fit], O=C(NCc1cccs1)C12CC3CC(CC(C3)C1)C2 8.91 µM [inhibitor, partial curve, poor fit], CCC(CC)c1nnc(NC(=O)c2c(-c3ccccc3)noc2C)s1 11.2 µM [inhibitor, partial curve, poor fit], Cc1ccccc1NS(=O)(=O)c1ccc(C(=O)NCC(c2ccco2)N(C)C)cc1 (stereo not drawn) 7.94 µM [inhibitor, partial curve, poor fit], CCN(CC(=O)Nc1ccc2c(c1)OCCO2)C(=O)CCc1ccccc1Cl 12.6 µM [inhibitor, partial curve], CC1(C)OC(=O)N(c2ccccc2)C12C=Cc1cc(Br)ccc1O2 (stereo not drawn) 4.47 µM [inhibitor, partial curve, poor fit], COc1cccc(C(NC(=O)C2CCN(CCCOc3ccccc3)CC2)c2ccccn2)c1 (stereo not drawn) 7.94 µM [inhibitor, partial curve, poor fit], CCn1ccc2cc(S(=O)(=O)N3CCC(C(=O)NCCc4ccccc4)CC3)ccc21 10 µM [inhibitor, single point], COc1ccc(-c2nc3c(C)cc(Br)cn3c2CC2CCCCC2)cc1OC 28.2 µM [inhibitor, single point], CC1CCCC(NC(=O)c2cc(S(=O)(=O)N3CCCCC3)ccc2Cl)C1C (stereo not drawn) 1.26 µM [inhibitor, full curve, poor fit], COc1ccc(-c2cc(C(F)(F)F)nc(NCc3cccnc3)n2)cc1 22.4 µM [inhibitor, single point], CN(CC(=O)Nc1ccc(Cl)cc1)CC(=O)Nc1ccc(F)c(F)c1F 14.1 µM [inhibitor, single point], COc1ccc(C(=O)NC2CC(C)(C)Cc3c2cnn3-c2ccccc2)c(OC)c1 (stereo not drawn) 22.4 µM [inhibitor, partial curve, poor fit], Cc1ccc(C(=O)NC2CCCC(C)C2C)cc1S(=O)(=O)N1CCCCC1 (stereo not drawn) 3.55 µM [inhibitor, partial curve, poor fit], CCN(CC)c1ccc(NC(=O)C2CCCN(S(=O)(=O)c3cccnc3)C2)c(C)c1 (stereo not drawn) 2.82 µM [inhibitor, partial curve, poor fit], CCN(CC)S(=O)(=O)c1ccc2[nH]cc(C(=O)NCCc3ccccc3)c(=O)c2c1 10 µM [inhibitor, partial curve, poor fit], Cc1oc2cc3oc(=O)c(CCC(=O)NCCCn4ccnc4)c(C)c3cc2c1C 28.2 µM [inhibitor, single point], Cc1cc(C)c(NC(=O)CCCn2c(C)c3cnn(-c4ccccc4)c(=O)c3c2C)c(C)c1 20 µM [inhibitor, single point], O=C(C[n+]1ccccc1)N1c2ccccc2Sc2ccccc21 31.6 µM [inhibitor, single point], Cc1cccc(-c2nc(CN3CCCC(C(=O)NC4CCCCCC4)C3)c(C)o2)c1 (stereo not drawn) 6.31 µM [inhibitor, partial curve, poor fit], CC1(c2nnc(Cc3ccccc3)o2)CC(c2cccc(Cl)c2)=NO1 (stereo not drawn) 12.6 µM [inhibitor, partial curve, poor fit], CCCCN1C[C@H](CSC)[C@@H](CC(=O)Nc2ccc(Br)cc2)C1=O 11.2 µM [inhibitor, single point], CCCN(CCC)CC(O)COc1ccccc1C(=O)Nc1ccccc1 (stereo not drawn) 14.1 µM [inhibitor, partial curve, poor fit], O=C(NCCCc1ccccc1)c1cccc(NC(=O)C2CCCC2)c1 12.6 µM [inhibitor, partial curve, poor fit], Cc1ccc(SCC(=O)N(C)CC(=O)Nc2cccc(F)c2)c(C)c1 10 µM [inhibitor, partial curve], Cc1ccc(S(=O)(=O)N(C)c2ccc(C(=O)NCCc3ccccc3)cc2)cc1 10 µM [inhibitor, partial curve, poor fit], CC(Cc1cccs1)NC(=S)Nc1ccc(Cl)cc1 (stereo not drawn) 28.2 µM [inhibitor, single point], COc1ccc(C(=O)c2ccccc2C(=O)c2ccccc2)cc1 8.91 µM [inhibitor, partial curve, poor fit], O=c1[nH]c(CN2CCc3ccccc32)nc2scc(-c3cccs3)c12 28.2 µM [inhibitor, single point], Cc1ccc(NC(=S)NCc2cccs2)c(C)c1 7.08 µM [inhibitor, partial curve], CN1CCN(C(=S)SCC(=O)Nc2nc(-c3ccccc3)c(-c3ccccc3)o2)CC1 28.2 µM [inhibitor, single point], Cc1ccc(C(=O)Nc2cccc(NC(=O)c3cccs3)c2)c(C)c1 28.2 µM [inhibitor, single point], COc1cc(NS(=O)(=O)c2ccc(C)cc2)c2ncccc2c1 3.16 µM [inhibitor, full curve, poor fit], COCC1CCN(C(=O)c2cc(COc3ccc(F)cc3F)on2)C1 (stereo not drawn) 11.2 µM [inhibitor, single point], c1ccc(-c2cn(-c3ccccc3)c3ncnc(NCCCN4CCOCC4)c23)cc1 11.2 µM [inhibitor, partial curve, poor fit], Cc1ccc(/C=N/NC(=O)c2ccc(OC3CCCC3)cc2)o1 10 µM [inhibitor, partial curve, poor fit], O=C(Nc1ccc(Oc2cccnc2)cc1)C1CCN(Cc2cc(Cl)ccc2O)CC1 2.24 µM [inhibitor, full curve, poor fit]

Potency, inactive:
Cc1nn(C2CCS(=O)(=O)C2)c(Cl)c1/C=C/C(=O)OCC(N)=O (stereo not drawn), Cc1oc2ccc(O)c(CN3CCN(Cc4ccccc4)CC3)c2c1C(=O)Nc1cccc(Cl)c1C, CCCCSCCCNC(=O)c1cc(-c2cccnc2)nc2ccc(S(=O)(=O)N3CCC(C)CC3)cc12, CCCCC(CC)C(=O)Nc1cc(C(=O)NCc2ccc(C)cc2)ccc1N1CCC2(CC1)CC(c1cccc(Br)c1)=NO2 (stereo not drawn), Cc1ccc2c(c1)S/C(=C\c1cccc[n+]1C)N2CCO, O=C(NCc1ccccc1Cl)c1ccc(Cn2c(=O)c3cccn3c3cccnc32)cc1, O=C(c1cc2ccc([N+](=O)[O-])cc2oc1=O)N1CCOCC1, CC(=O)C1=C(c2ccc(Br)cc2)N(C(C)=O)n2c(nnc2C2CCCCC2)S1, CCCc1c(C(=O)N/N=C/c2ccccc2OCc2ccc(F)cc2)nnn1-c1nonc1N, O=C(NCCN1CCN(C(=O)c2ccc(F)cc2)CC1)c1ccc(F)cc1, Cc1ccc(C)c(S(=O)(=O)Nc2ccccc2C(=O)Nc2ccc(S(=O)(=O)Nc3ncccn3)cc2)c1, Cc1ccc(CCNC(=O)c2cn(C)c3ccc(S(=O)(=O)N4CCC(C)CC4)cc3c2=O)cc1, Cc1cccc(C)c1-n1nnnc1C1(C)CCC(=O)N1Cc1cccc(C(F)(F)F)c1 (stereo not drawn), O=C(c1ccccc1)N1CCCC(c2nc3c(nnn3Cc3ccccc3)c(=O)[nH]2)C1 (stereo not drawn), Cc1cccc(C)c1NC(=O)CN1CCC(Cc2ccccc2)CC1
